Experimental data from the RNAGym collection of RNA variant scans (doi:10.7554/elife.90254).
The source gives no read counts; variants with many changes may rest on few reads.

B1: LINE1-mini (parent)
chain: GGCAGAGCUCAACACAGCGUGGCAAAGUGGCUGUGGCUAGACUGCC

Variants of: B1
Experiment: self-cleavage, relative activity (ratio to wild type); higher = more cleavage; in vitro, sequencing; the parent is a self-cleaving ribozyme

Row | Variant | self-cleavage
1 | GGUAGAGCUCAACACAGCGUGGCAAAGUGGCUGUGGCUACUUUGCC | 0.05
2 | GGCAGAGCUCAACACAGCGAGGCAAAGUGGCAGUUGCUAGACUGCC | 0.01
3 | GACAGAGCUCAACAAAGCGUCGCAAAGUGGCUGUGGCUAUACUGCC | 0.13
4 | GGCAGAGUUCAACACAGCGUGGUAAAUUGGCUGUGGCUAGAAUGCC | 0.05
5 | GGCAGAGCUCCCCACAGCGUGGCAAAGUGGCUGUGGCUACUCUACC | 0.01
6 | GGCAAAGCUCAACAUAGUGUUGCAAAGUGGGUGUAGCUAGACUGCC | 0.01
7 | GGCAGAGCUCAACACAGAGUGGCAAAGUGGUUGUGGCUAGACAGCU | 0.01
8 | AGCAUAGCUCAUCACAGCGUGGCAAAGUGGCUGUGCCUAGACUGCC | 0.03
9 | GGAAGAGCUCAAUUAAGCGUCGCAAAGUGGCUGUGGCUAGACUGGC | 0.13
10 | GCCAGAACUCAACACUGCGUGGCAAAGUGGCUGUGGCUAGACUGCC | 0.08
11 | GGCAGAGCUCUACACAGCGUGGCAAGGUGGCUGUCGCUAGACUGCC | 0.02
12 | GGCAGGGCUCAACGCAGCGUGGCAAAGUGGCUGUGGGUAGUCUGCC | 0
13 | GUCAGAGCUCAAAACAGCCUGGCAAAUUGGCUGUGGCUAGACUGCC | 0.05
14 | GGCAGAGCUCAACACAGCGUGGCAAAGUGGCUGAGACGAGACUGCC | 0.01
15 | GGAUGAGCUCAACACAGAGUGGCAGAGUGGCUGUGGCUAGCCUGAC | 0.04
16 | GGAAGAGCUAAACACAGCGUAGCAAAGUGGCUGUGGCUAGACUGCC | 0.04
17 | GGCGGAGCUCAACACAGCGUGGCAAAGUGGCUGUGGCUAGACUCCA | 0.02
18 | GGCAGAGCUCAAAACAGCGAGGCAAAUUGGCUCUGGCUACACUGCA | 0.02
19 | GGCAAAUAUCAACACAGCGUGGCAAAGCGGCUGUGGCUAGACUUCC | 1.92
20 | GGCAGAGCCCAACACAGCUUGGCAAAGUGGCUGUGGAUAGGCUGCC | 0.01
21 | GUCGGAGCUCAACACAGCGUCCCAAAGUGGCUGUGGCUAGACUGCC | 0.02
22 | GGCAGAGCUCAACACAGCGUGGCCAAGUGACUGUGACUAGACUGCC | 0.07
23 | GGCAGAGCUCAACACUGCGUGGCUAAGUGGAUGUGGCUUGACUGCC | 0.03

Row | Variant | self-cleavage
24 | GGCGGAGCUCAACACAGCGUGGCACAGUGGCUGUGGCUAGACAGAC | 0.02
25 | GGCAGAGCUCAACACAGCGUAGCAAAGUGGCUGGGGCUAGACUACC | 0.02
26 | GGCAGAGCUCAACACAACGUGGUAAAGUGGCUAUGGCUAGACAGCC | 0.02
27 | GGCAGAGCUUAAGACAGCGUGGCAAAGUGGCUGUGGCUAGACUACC | 0.03
28 | GGCAGAGCUCAACACUACGUGGCAAAGUGGUAGUGGCUGGAUUGCC | 0.16
29 | GGCGGAGCUCCACACAGCAUAACACAGUGGCUGUGGCUAGACUGCC | 0.04
30 | GGCAGAGUUCACCACAGCGUAGCAAAGUGGCUGUGGCUAGACUGCC | 0.05
31 | GGCAGAGCUCAGCAGAGCGUGGCAAAGUUGCUGUGGCUAGACUUGC | 0.02
32 | GGCAGAGCUCAACACAGCGUCGCAAAGUGCCAGUGGCUAGAAUGCC | 0.02
33 | GGCAGAGCUCUACAAAGCGUGGUAAAGUGGCUCUGGCUAGACUGCC | 0.01
34 | GACAGAGCUCAACACAGGGGGGCAAAGUGGCUGUGGCAAGACUGCC | 0.03
35 | GGCAGAGCUCAACCAAGCGUGGCAAAGUGGCUGUGGCUAUACUGCC | 0.02
36 | GGCAGGGCUUAACACAGCGUGGCAAAGUGUCUGUGGCUAGACUGCC | 0.04
37 | GGCAGAGCUCAACACAGCGUGGCAACUUGGCUUUGUCUAGACUGCC | 0.02
38 | GGCACAGCUCAACACAGCGUGGCAAAGUGGCUGUGGCUGGACUCCC | 0.11
39 | GGCAGAGCUCAACACAGCGUAGCAAAGAGGCUGUGGUUAGACUACC | 0.03
40 | GGCAGAGCUGGACAAAACGUGGCAAAGUGGCUGUGGCUAGACUGCC | 0.02
41 | CGCAGAGCUCAACACACCGUGGCACAGUGGCUGUGGCUAGACUGCC | 0.08
42 | GGCAGAGCUCAACACAGCGUGGCAAAGUGGCUGUGGCUAGAAUCCA | 0.02
43 | GGCAGAGCUCAAGACAACGUGGCAAAGUGGCCGUGGCUAGACUGCC | 0.11
44 | GGCUGAGCUCAACACAGCGUCGCAAAGUCACUGUGGCUAGACUGCC | 0.12
45 | GGCAGAGCUCAACACAGCGAGGCAACGUGGCUGUGGCUAGACUGGC | 0.28
46 | GGCAUAACUUAACACAGCGUGGUAAAGUAGCUGUGGCUAGACUGCC | 0.03

Row | Variant | self-cleavage
47 | GUCAGAGCUAAACACAGUGUGGCAUAGUGGCUGUGGCUAGACUGCC | 0.01
48 | GGCAGAGCUCCACACAGCGUGGUAAAGAGGCUGGGGCUAAACUGCC | 0.02
49 | GGGAGAGCUAACCCCAGCGUGGCAAAGUGGCUGUGGCUCGACUGCC | 0
50 | AGCAGUGCUCAGCACCGCGUGGCAAAGUGGCUGUGGCUAGACUGCC | 0.05
51 | GGCAGGGCUCAACACAGCGCGGCAACGUGGCUGUGGCCAGACUGCC | 0
52 | GGCAGACCUCAACACAACGUGGCAAAGUGGCUGUGGCUAGACUGCG | 0.05
53 | GGCAGACCUCAAUACAGCGUGGCUAAGUGCCGGUGGCUACACUACC | 0.03
54 | GGCAGAGCUCACCACAUCGUGGCAAAGUGGCUGUGGCUAGACUCCC | 0.04
55 | CGCAGAGCUCAACACAGCGUGGCAAAUUGGAUGUGGCUAGACUGCC | 0.08
56 | GUCAGAGAUCAACGCAGCGUGGCAAAGUGGCUGUGGCUAGAAUGCC | 0.06
57 | GGCAGAGCGCGACACAUCGUCGCAAAGUUUCUGUGGCUAGACUGCA | 0.01
58 | GUCAGAGCACAACACAGCGUGGCAAAGUGGGUGUGCCUAGACUGCC | 0
59 | GGCAGGGCUCAAUACAGCGUGGGAAAGUGGCAGUGGGUAGAUUGCC | 0.13
60 | GACAGAGCUCAACACAGCGUGGCAAAGUGGCUGUGGCUAGACCGGC | 0.84
61 | GUCAGAGCUCAACACAGCCGGGCAAAGUGGCUGUGGUUAGACUGCC | 0.01
62 | GGCAGAGCUCAACAGAGCGUGACAAAGUAGCUCUGGCUAGACUGCC | 0.2
63 | GGCAGAGCUCAACACAGACUGGCAAAGUGGCUGUGGCUAUACUGCC | 0.01
64 | GACAGAGCUCAACACAGAGGGGCAAAGUGGCUGUGCCUAGAAUACC | 0.03
65 | GGCAGAGCUCAACACAGCGUUGCCAAGUGGCCGUGGCUACACUGCU | 0.01
66 | GGCAAAGCUCAACACAGCAUGGCAAAGUGGCUGUGGAUAGAAUGCG | 0.11
67 | GUUAGAGCUCAACACAGCGUGACAAAGUGGUUUUCGCUAGACUGCC | 0.1
68 | GGCAGCGUUCAACACAGCGUGGCAAAGUGGCUGUGGCUAGAUUGCC | 0.26
69 | GGCUGAGCUCAAGACAGCGUGGCCAAGUGGCGGUGGCUAGACUGCC | 0.01

Row | Variant | self-cleavage
70 | AGCAGAGCUAGACCCAGCGUGGCAAAGUGGCUGUGACUAGACUUCC | 0.02
71 | CGAAGAGCUCAACACAGCGUGGCAAACUCGCUGUGGCUAGACAGCC | 0.02
72 | GGCAGAGCUCAACGCAGCGAGGCAAAGUGGUUAUGGCUAGACUGCA | 0.03
73 | GGCAGAGAUCAACACACCGUGGCAAAGUGGCUGUGGCUAGCCUGCC | 0.29
74 | CGCAGAGCUCAACACAGCGUGGCAAAGUGGUCGUGGCUAGACUGCC | 0.12
75 | GGCAGAGCUCAACACAGCGUGGCAACGCGGCUGUGGCUAGAUUGCC | 0.72
76 | GGUAGAACUCAAUAAAGCGUGGCAAAGUGGCUGUGGCUAGACUGCC | 0.08
77 | GGCAGGGCUAAACACAGCGUGGGAAAGUGGCGGUGUCUAGACUGUC | 0.01
78 | GGCAGUGCUCAACACAGCGUGGCAAAGUGGCCGUGGCUAGCCUGCC | 0.04
79 | GGAGGAGCUCAACAAAGCGUGGCAAAGUGGCUGUGUCUAGACAGCC | 0.06
80 | GGCAGAGCUCAACAUAGCGUGGCAACGUGGCUGUGGCUAGAGUGCA | 0.12
81 | GAAAGACCUCAACACAGCGUGGCAACGUCGCUGUGGCUAGACUGCC | 0.51
82 | GGUAGAGCUCCACACAGCGUGGCAAAGUGGCUCUGGCUAGACUGCC | 0.02
83 | GGCAGAGCUAAACACAGCGUGGCAAAGCGGCUGUGGCUCGACUGCC | 0.06
84 | GCCAGAGCUCACCAAAGCGUGGCAAAGUGGCUGUGGCAAGACUGCA | 0.03
85 | GGCAGAGCUAAACACAGCAUGGCAAAGUGCCUGUGGGUAGACUGCC | 0.02
86 | GGCAGAGCUCAACACAUCGUGGCAAGGUGGCUGUGGAUAGACUGCC | 0.15
87 | GGCAGAUCUCAACACAGCGUGGCACAGUGGCUGUGCCUCGGCUGCC | 0.08
88 | CUCAGAGCUCAACACAGCGUGGCAAAGUGCCUGUGGCUAGACUGCC | 0.06
89 | GGCACAGCUGAACACAGCGUGACAAAGUGGCUGUGGCUUGACUGCC | 0.04
90 | GGCAGAUCUCAACACAGCGUGGCAAAGUGGCUGUUGCGAGACUGCC | 0
91 | GGCAGAGCUCAACACAGCGUGGAAAAGUGGCUGUGUCUAGGCUGCC | 0.03
92 | GGCAGAUGUCAACACAGCGUGGCAAAGCGGCUGUGCCUAGACUGCC | 0.2

Row | Variant | self-cleavage
93 | GGAAUAGCUCAACACUGAGUGGCAGAGUGGCUGUGCCUAGACUGCG | 0.12
94 | GGCAUAGCUCAACACAGCGUGGCACAGUGGCUGUGGCUAGACUGCG | 0.05
95 | GGCGGAGCUCACCAAAGCUCGGCAAAGUGGAUGUGGCUAGACUGCC | 0.01
96 | CGCAGUGAUCAACACAGCGUGGCAAAGUGGCUGUGGCUAGACUACC | 0.02
97 | GGCAGAGCUCAACACAGCGUGGCAAAGCGGCUGUGGCUAGGCUCCC | 0.11
98 | GGCAGAGCUCAACACAGCGUGUGAAAGUGGCUGUGCCUAGGCUGCC | 0.08
99 | GGCAGAGCUCAACACAGCGUUGCAAAAUGGCUGUGGCUGGACUGCC | 0.03
100 | GGCAGAGCUCAACGCAGCCUGGCAAAGUGGCUGUGGCUAGACAGCC | 0.07
101 | GGCAGAGCUCAACACAGCGUGGUAAAGUCGCUGUGGCUAGACUGGC | 0.45
102 | GGCAGAACUCAACACAGCCUGGGAAAGUGGCUGUGGCUCGACUGCC | 0.04
103 | GGCAUAGCUCAACCCACAGUGGCAAAGUGGCUGUGGCUUGACUGCC | 0
104 | GGCGGAGCUGAACACGGCGUUGCAAAGUGGCUGUGGCUAGACUGCC | 0.04
105 | GGCAGAGCUCAACACCGCGUGGUAAAGGGCCUGUGGCUAGACUGCC | 0.02
106 | GGCAGUACCCAACACAGAGUGGCAAAGUGGCUGUGGCUAGACUGCC | 0.04
107 | GGUGGAGCUCAACACAGCGUGGCAAAGUGGUUAUGGCUAGCCUGCC | 0.19
108 | UGCAGAGCUCAACACAGCGUGUCAAAGUGGCUGUGGCAAGACUGCC | 0.15
109 | GCAAGAGCUAAACACAGCGUGGCCAAGUGGCCGUAGCUAGACUGCC | 0.01
110 | GGCAGAGCUCAACAAAGAGUGGCAAAGUGGCUGUGGCUACACUGCC | 0.01
111 | GGUAGAACUCAACAAAACGUGGCUAAGUGGCUGUGGCUAGACUGCC | 0.03
112 | GGUAGAGCUCAGCACAGCGUGUCAAAGUGGCUGUGGCUAGACUGCC | 0.09
